Laboratory results published in PubChem BioAssay AID463173 (ICCB-Longwood Screening Facility, Harvard Medical School, 2010).
Hit rate of the full screen: of about 52,000 compounds, about 1,700 (3.3%) were called active. Cut-off read from the data, not from the text of the source: active = survival mostly below about 52% (no sharp cut-off); inactive = mostly above about 56%. This is one part of the list.

tested on: Wild type; assay: S. aureus survival, RN4220 and DeltatarO strains – OD600, teichoic acid synthesis inhibitors, primary screen (AID 463173); conditions: S. aureus RN4220 wild type/DeltatarO growth, OD600, 18 h, active compounds read low, screened at 18.75 µg/mL (by protocol)

Row | SMILES | survival
1 | COc1ccc(CCN2C(=O)N(c3ccc(F)cc3)C(=O)C2CC(=O)Nc2ccc(F)c(F)c2)cc1 (stereo unspecified) | inactive: 50%
2 | CCOc1ccc(N(CC(=O)NCc2ccc(Cl)cc2)S(=O)(=O)c2c(C)noc2C)cc1 | inactive: 86%
3 | Cc1c(NC(=O)c2ccc(N3CCC(C)CC3)c([N+](=O)[O-])c2)cccc1-c1nc2ccccc2o1 | inactive: 72%
4 | Cc1ccc(C(=O)Nc2ccc(OCc3cc(=O)n4c5c(sc4n3)CCCC5)cc2)cc1 | inactive: 88%
5 | Cc1cccc(N2CCN(C(=O)c3oc(=O)c4ccccc4c3-c3ccccc3)CC2)c1C | inactive: 76%
6 | COCCCNC(=O)C1CCC(Cn2c(=O)c3sccc3n(Cc3ccc(F)cc3)c2=O)CC1 (stereo unspecified) | inactive: 73%
7 | Cc1cc(NC(=O)Nc2csc3c2CCCC3)ccc1Br | inactive: 46%
8 | COC(=O)c1c(C)sc(-c2c(-c3cccc(Cl)c3)[nH]c3c2c(=O)[nH]c(=O)n3C)c1O | inactive: 85%
9 | O=C(O)CN1C(=O)CCC1=O | inactive: 100%
10 | Cc1cc(C)cc(NC(=O)c2sc3nc(-c4cc5ccccc5oc4=O)[nH]c(=O)c3c2C)c1 | inactive: 81%
11 | Cc1ccc(OCc2ccc(-c3nc(C#N)c(N4CCC(C)CC4)o3)o2)cc1 | inactive: 83%
12 | COc1ccc(-c2noc(N3CCN(c4cccc(C)c4C)CC3)n2)cc1OC | inactive: 69%
13 | CCc1cccc(C)c1NC(=O)C(C)Sc1nc2c(c(=O)[nH]1)CCCC2 (stereo unspecified) | inactive: 106%
14 | COc1ccccc1C(=O)Nc1nnc(SCc2cc(=O)n3ccc(C)cc3n2)s1 | inactive: 57%
15 | COc1ccc(CCNC(=O)CCc2c(C)nc3c(c(C)nn3-c3ccccc3)c2C)c(OC)c1 | inactive: 78%
16 | CCCNC(=O)CCC(=O)N1Cc2ccccc2Oc2ncccc21 | inactive: 129%
17 | c1ccc(-c2nc(N3CCCCC3)c3ccccc3n2)cc1 | inactive: 130%
18 | COc1ccc(C(=O)CN2C(=O)N(c3cc(C)ccc3C)S(=O)(=O)c3ccccc32)cc1 | inactive: 70%
19 | CCc1ccccc1NC(=O)C1CCN(C2=NS(=O)(=O)C(c3ccc(C)c(C)c3)=C2C)CC1 | inactive: 87%

Row | SMILES | survival
20 | CCOC(=O)c1c(C)oc2nc(C)nc(NC(C)c3ccccc3)c12 (stereo unspecified) | inactive: 84%
21 | CCOC(=O)c1cc2c(ccn2C)n1Cc1c(Cl)cccc1Cl | inactive: 101%
22 | Cc1cccc(OCC(=O)Nc2ccc3c(c2)nc(CCNC(=O)c2ccco2)n3C)c1 | inactive: 121%
23 | Cc1nc2c3ccccc3nc(NNC(=O)CCC(=O)N3CCN(c4ccccc4)CC3)n2n1 | inactive: 81%
24 | CC1=C(C(=O)OCc2ccc(C)cc2)C(c2ccccc2Cl)CC(=O)N1 (stereo unspecified) | inactive: 75%
25 | COc1ccc(Br)cc1CNC(=O)c1ccc2c(c1)nc1n2CCCCC1 | inactive: 70%
26 | CCc1ccc(-c2cc3c(N4CCN(c5ccccc5)CC4)nccn3n2)cc1 | inactive: 79%
27 | COc1cccc(C(=O)n2nc(-c3ccco3)nc2NCc2cccs2)c1 | inactive: 83%
28 | Cc1cccc(CN2C(=O)c3ccccc3S(=O)(=O)c3ccc(C(=O)N4CCN(c5cc(C)ccc5C)CC4)cc32)c1 | inactive: 91%
29 | COc1ccc(NC(=O)N2CCN(c3cc(-c4noc(C)n4)ccc3C)CC2)c(OC)c1 | inactive: 133%
30 | COc1ccc(NS(=O)(=O)c2ccc(NS(=O)(=O)c3ccc4c(c3)OCCO4)cc2)cc1 | inactive: 100%
31 | CC(C)(C)C1CCc2c(sc(NC(=O)c3ccncc3)c2C(=O)Nc2ccccc2Cl)C1 (stereo unspecified) | inactive: 84%
32 | COc1cccc(N2CCN(Cc3nnc(-c4ccc5c(c4)OCO5)o3)CC2)c1 | inactive: 102%
33 | COc1ccc(CNCC(=O)N2CCN(C(=O)CNCc3ccc(OC)cc3)CC2)cc1 | inactive: 98%
34 | Cc1cccc(-c2nc3nc(C)cc(N4CCN(c5ccccc5)CC4)n3n2)c1 | inactive: 88%
35 | COc1ccc(N2CCN(C(=O)CCn3cnc4onc(-c5ccc(F)cc5)c4c3=O)CC2)cc1 | inactive: 133%
36 | COc1ccc(N(CC(=O)NCc2ccc(C)cc2)S(=O)(=O)c2c(C)[nH]c(=O)[nH]c2=O)cc1 | inactive: 137%
37 | Cc1cc(C)cc(N2CCn3c2nc2c3c(=O)n(CCc3ccccc3)c(=O)n2C)c1 | inactive: 84%
38 | Cc1c(C(=O)NCc2ccccc2Cl)sc2nc3n(c(=O)c12)CCC3 | inactive: 112%

Row | SMILES | survival
39 | Cc1ccc(-c2nc3c4ccccc4n(Cc4cccc(Cl)c4)c(=O)n3n2)cc1 | inactive: 124%
40 | CCN1CCN(CCCNC(=O)Cn2nc(C)n3c(cc4cc(C)ccc43)c2=O)CC1 | inactive: 88%
41 | CCc1ccc(S(=O)(=O)c2nnn3c2nc(N2CCCC(C)C2)c2cc(Cl)ccc23)cc1 (stereo unspecified) | inactive: 81%
42 | COc1ccc2nc(N3CCN(C(=O)c4ccco4)CC3)sc2c1 | inactive: 92%
43 | COc1ccc(OC)c(CNC(=O)C2COc3ccccc3C2)c1 (stereo unspecified) | inactive: 91%
44 | CCOC(=O)Cc1ccc(NC(=O)N2CC(CC)Oc3ccccc32)cc1 (stereo unspecified) | inactive: 80%
45 | COc1ccc(-c2nc3cccc(C)n3c2NC(C)(C)C)cc1O | inactive: 122%
46 | NC(N)=N/N=C/c1ccco1 | inactive: 114%
47 | COc1cccc(Cn2cc(S(=O)(=O)c3ccc(C)cc3)c(=O)c3cc4c(cc32)OCO4)c1 | inactive: 85%
48 | COc1ccc(NC(=O)c2ccco2)cc1NC(=O)COc1ccc(C)cc1C | inactive: 86%
49 | O=C(Nc1nonc1-c1ccc(Br)cc1)c1ccco1 | inactive: 76%
50 | Cc1nc2ccccc2n1CCc1nc2c3ccccc3nc(SCC(=O)Nc3ccc(C(C)C)cc3)n2n1 | inactive: 68%
51 | CC1CC(C(F)F)n2nc(C(=O)Nc3sc4c(c3C#N)CCC(C(C)(C)C)C4)nc2N1 (stereo unspecified) | inactive: 101%
52 | Clc1ccc(CSc2nc3ncccc3[nH]2)cc1 | inactive: 79%
53 | Cc1ccc(NC(=O)Cc2ccc(NC(=O)N3CCCCc4ccccc43)cc2)cc1 | inactive: 71%
54 | CCCc1ccc(NC(=O)C2CCN(c3cnccn3)CC2)cc1 | inactive: 98%
55 | Cc1cc(Cl)ccc1NC(=O)CN1C(=O)C(=O)c2ccccc21 | inactive: 74%
56 | O=C(Nc1cccc(S(=O)(=O)c2cccc(NC(=O)c3ccco3)c2)c1)c1ccco1 | inactive: 124%
